At least one read-out could not be matched to a standard name with certainty.
Key:
[1] = system: P. aeruginosa PAM1723, overexpressing the MexABOprM efflux pump; type: cell-based, Pseudomonas aeruginosa; conditions: lowest inhibitor concentration giving antibacterial activity with levofloxacin at 1/8 of its MIC
[2] = system: Klebsiella pneumoniae KPM1004 overexpressing the AcrABTolC efflux pump; type: cell-based; conditions: lowest inhibitor concentration giving antibacterial activity with azithromycin at 1/16 of its MIC; K. pneumoniae KPM1004

Row | SMILES | MPC8 (μg/mL) (Levofloxacin, PAM1723) [1] [µg/mL] | MPC16 (μg/mL) Azithromycin, KPM1004) [2] [µg/mL]
1 | CC(C)c1ccc(NC(=O)[C@H](CCC2CCCCC2)NC(=O)[C@@H](N)CC(=O)N(CCN)CCN)cc1.Cl.Cl.Cl [Compound 354, (1S)-2-[bis(2-azaniumylethyl)carbamoyl]-1-{[(1S)-3-cyclohexyl-1-{[4-(propan-2-yl)phenyl]carbamoyl}propyl]carbamoyl}ethan-1-aminium trichloride] | 0.6 | 0.60
2 | NCCN(CCN)C(=O)C[C@H](N)C(=O)NCC(=O)N(Cc1ccc(C(F)(F)F)cc1)c1cnc2ccccc2c1 [Compound 357, 3-[(1S)-2-[bis(2-azaniumylethyl)carbamoyl]-1-{[({[4-(trifluoromethyl)phenyl]methyl}carbamoyl)methyl]carbamoyl}ethan-1-aminium]quinolin-1-ium tetrachloride] | 1.25 | 1.25
3 | Cl.Cl.Cl.Cl.NCCN(CCN)C(=O)C[C@H](N)C(=O)N[C@H](Cc1ccc(C(F)(F)F)cc1)C(=O)Nc1cnc2ccccc2c1 [Compound 359, 3-[(1S)-2-[bis(2-azaniumylethyl)carbamoyl]-1-{[(1R)-1-carbamoyl-2-[4-(trifluoromethyl)phenyl]ethyl]carbamoyl}ethan-1-aminium]quinolin-1-ium tetrachloride] | 0.60 | 1.25
4 | Cl.Cl.Cl.NCC(CN)NC(=O)C[C@H](N)C(=O)N[C@@H](CCc1ccccc1)C(=O)Nc1cccc(C(F)(F)F)c1 [Compound 361, (1S)-2-[(1,3-diazaniumylpropan-2-yl)carbamoyl]-1-{[(1S)-3-phenyl-1-{[3-(trifluoromethyl)phenyl]carbamoyl}propyl]carbamoyl}ethan-1-aminium trichloride] | 1.25 | 0.31
5 | CN(CCNC(=O)c1ccc(C(F)(F)F)cc1)C(=O)[C@@H](NC(=O)[C@@H](N)CC(=O)N(CCN)CCN)[C@H](O)c1ccc(C(F)(F)F)cc1 [Compound 377] | 1.25 | 1.25
6 | NCCN(CCN)C(=O)C[C@H](N)C(=O)N[C@H](C(=O)Nc1cc2ccccc2nn1)[C@H](O)c1ccc(C(F)(F)F)cc1 [Compound 379] | 5 | 2.5
7 | NCCN(CCN)C(=O)C[C@H](N)C(=O)N[C@H](C(=O)NCc1nc(-c2ccccc2)ns1)[C@H](O)c1ccc(C(F)(F)F)cc1 [Compound 381] | 0.6 | 2.5
8 | CN(CCNC(=O)[C@@H](NC(=O)[C@@H](N)CC(=O)N(CCN)CCN)[C@H](O)c1ccc(C(F)(F)F)cc1)C(=O)c1ccc(C(F)(F)F)cc1 [Compound 382] | 1.25 | 1.25
9 | CCOc1c(F)cc(CNC(=O)[C@@H](NC(=O)[C@@H](N)CC(=O)N(CCN)CCN)[C@H](O)c2ccc(C(F)(F)F)cc2)cc1F [Compound 383] | 1.25 | 5
10 | NCCN(CCN)C(=O)C[C@H](N)C(=O)N[C@H](C(=O)N1Cc2c(F)c(F)c(F)c(F)c2C1)[C@H](O)c1ccc(C(F)(F)F)cc1 [Compound 384] | 1.25 | 1.25
11 | CCCOc1cc(NC(=O)[C@@H](NC(=O)[C@@H](N)CC(=O)N(CCN)CCN)[C@H](O)c2ccc(C(F)(F)F)cc2)ccc1F [Compound 385] | 1.25 | 0.6
12 | CC(C)Oc1cc(NC(=O)[C@@H](NC(=O)[C@@H](N)CC(=O)N(CCN)CCN)[C@H](O)c2ccc(C(F)(F)F)cc2)ccc1F [Compound 386] | 10 | 0.6
13 | CC(C)(C)NS(=O)(=O)c1ccc(NC(=O)[C@@H](NC(=O)[C@@H](N)CC(=O)N(CCN)CCN)[C@H](O)c2ccc(C(F)(F)F)cc2)cc1 [Compound 388] | 1.25 | 1.25
14 | NCCN(CCN)C(=O)C[C@H](N)C(=O)N[C@H](C(=O)Nc1ccc(OCC(F)F)c(F)c1)[C@H](O)c1ccc(C(F)(F)F)cc1 [Compound 389] | 0.6 | 1.25
15 | NCCN(CCN)C(=O)C[C@H](N)C(=O)N[C@H](C(=O)NC1(c2ccc(C(F)(F)F)cc2)CC1)[C@H](O)c1ccc(C(F)(F)F)cc1 [Compound 390] | 10 | 1.25
16 | NCCN(CCN)C(=O)C[C@H](N)C(=O)N[C@H](C(=O)NCc1cncc(C(F)(F)F)c1)[C@H](O)c1ccc(C(F)(F)F)cc1 [Compound 391] | >10 | 5
17 | CCOc1ccc(N(C)C(=O)[C@@H](NC(=O)[C@@H](N)CC(=O)N(CCN)CCN)[C@H](O)c2ccc(C(F)(F)F)cc2)cc1 [Compound 392] | 1.25 | 1.25
18 | NCCN(CCN)C(=O)C[C@H](N)C(=O)N[C@H](C(=O)Nc1ccc(OCCF)c(F)c1)[C@H](O)c1ccc(C(F)(F)F)cc1 [Compound 395] | 2.5 | 2.5
19 | NCCN(CCN)C(=O)C[C@H](N)C(=O)N[C@H](C(=O)Nc1ccc(OC(F)(F)F)cc1)[C@H](O)c1ccc(C(F)(F)F)cc1 [Compound 398] | 0.6 | 0.6

Row | SMILES | MPC8 (μg/mL) (Levofloxacin, PAM1723) [1] [µg/mL] | MPC16 (μg/mL) Azithromycin, KPM1004) [2] [µg/mL]
20 | CC(C)Oc1ccc(CNC(=O)[C@@H](NC(=O)[C@@H](N)CC(=O)N(CCN)CCN)[C@H](O)c2ccc(C(F)(F)F)cc2)cc1 [Compound 399] | 0.6 | 2.5
21 | NCCN(CCN)C(=O)C[C@H](N)C(=O)N[C@H](C(=O)Nc1ccc2ncccc2c1)[C@H](O)c1ccc(C(F)(F)F)cc1 [Compound 400] | 1.25 | 2.5
22 | NCCN(CCN)C(=O)C[C@H](N)C(=O)N[C@H](C(=O)Nc1cc(F)c(F)c(F)c1)[C@H](O)c1ccc(C(F)(F)F)cc1 [Compound 401] | 0.6 | 0.6
23 | NCCN(CCN)C(=O)C[C@H](N)C(=O)N[C@H](C(=O)Nc1ccc(OCC(F)(F)F)cc1)[C@H](O)c1ccc(C(F)(F)F)cc1 [Compound 402] | 0.6 | 1.25
24 | NCCN(CCN)C(=O)C[C@H](N)C(=O)N[C@H](C(=O)Nc1ccc2ccccc2c1)[C@H](O)c1ccc(C(F)(F)F)cc1 [Compound 403] | 1.25 | 0.6
25 | NCCN(CCN)C(=O)C[C@H](N)C(=O)NCC(=O)N[C@H](C(=O)Nc1ccc2ncccc2c1)[C@H](O)c1ccc(C(F)(F)F)cc1 [Compound 408] | 2.5 | 5
26 | NCCN(CCN)C(=O)CC[C@H](N)C(=O)N[C@H](C(=O)Nc1ccc2ncccc2c1)[C@H](O)c1ccc(C(F)(F)F)cc1 [Compound 411] | 1.25 | 2.5
27 | NCCN(CCN)C(=O)CC[C@H](N)C(=O)N[C@H](C(=O)Nc1ccc(OCC(F)(F)F)cc1)[C@H](O)c1ccc(C(F)(F)F)cc1 [Compound 412] | 0.6 | 1.25
28 | CN(C(=O)[C@H](Cc1ccc(C(F)(F)F)cc1)NC(=O)[C@@H](N)CC(=O)N(CCN)CCN)c1cccc(C(F)(F)F)c1 [Compound 415] | 1.25 | 0.6
29 | NCCN(CCN)C(=O)C[C@H](N)C(=O)N[C@@H](CCc1ccccc1)C(=O)NCc1ccc(OC(F)F)cc1 [Compound 421] | 5 | 2.5
30 | CC(C)c1ccc(OCC(COc2ccc(C(C)C)cc2)NC(=O)[C@@H](N)CC(=O)N(CCN)CCN)cc1 [Compound 422] | 2.5 | 1.25
31 | NCCN(CCN)C(=O)C[C@H](N)C(=O)N[C@@H](CSc1ccccc1)C(=O)NCc1ccc(OC(F)(F)F)cc1 [Compound 424] | 2.5 | 1.25
32 | NCCN(CCN)C(=O)CC[C@H](N)C(=O)N[C@@H](CCc1ccccc1)C(=O)NCc1ccc(OC(F)(F)F)cc1 [Compound 430] | 10 | 1.25
33 | NCCN(CCN)C(=O)CC[C@H](N)C(=O)N[C@H](Cc1ccc(C(F)(F)F)cc1)C(=O)Nc1ccc2ncccc2c1 [Compound 431] | 0.6 | 1.25
34 | NCCN(CCN)C(=O)C[C@H](N)C(=O)NC(C(=O)NCc1ccc(OC2CC2)cc1)[C@H](O)c1ccc(C(F)(F)F)cc1 (stereo partly shown) [Compound 435] | 0.6 | 5
35 | NCCN(CCN)C(=O)C[C@H](N)C(=O)NC(C(=O)NCc1ccc(OC(F)(F)F)cc1)[C@H](O)c1ccc(C(F)(F)F)cc1 (stereo partly shown) [Compound 436] | 1.25 | 1.25
36 | N[C@@H]1CN(C(=O)CC[C@H](N)C(=O)NC(C(=O)NCc2ccc(OC(F)(F)F)cc2)[C@H](O)c2ccc(C(F)(F)F)cc2)C[C@@H]1N (stereo partly shown) [Compound 437] | 5 | 5
37 | NCCN(CCN)C(=O)C[C@H](N)C(=O)NCC(=O)N[C@@H](Cc1ccc(C(F)(F)F)cc1)C(=O)Nc1ccc2ncccc2c1 [Compound 440] | 1.25 | 2.5
38 | NCCN(CCN)C(=O)C[C@H](N)C(=O)NCC(=O)N[C@H](Cc1ccc(C(F)(F)F)cc1)C(=O)Nc1ccc2ncccc2c1 [Compound 441] | 0.6 | 2.5

— US8178490B2, “Polybasic bacterial efflux pump inhibitors and therapeutic uses thereof” (priority 2007, dated 2012)
